Publication PMC7819943, “Rice protein-binding microarrays: a tool to detect cis-acting elements near promoter regions in rice”
Some of the results follow.

molecular target: T1, OsWOX13 (Oryza sativa, UniProt Q5QMM3 1-267); experiment: protein-binding microarray (RPBM); PBS, 2% BSA, 51.3 ng/ul salmon testes DNA, 50 uM zinc acetate, 200 nM TF, 25 C, 1 h; high values mean tight binding; details: protein: recombinant; tags: N-terminal polyhistidine and DsRed monomer fusion (pET32a); label: CyDye5-dUTP incorporated in the synthesized complementary strand; 3' TTTTT single-stranded linker to array surface; dsDNA, one strand shown
T1 sequence: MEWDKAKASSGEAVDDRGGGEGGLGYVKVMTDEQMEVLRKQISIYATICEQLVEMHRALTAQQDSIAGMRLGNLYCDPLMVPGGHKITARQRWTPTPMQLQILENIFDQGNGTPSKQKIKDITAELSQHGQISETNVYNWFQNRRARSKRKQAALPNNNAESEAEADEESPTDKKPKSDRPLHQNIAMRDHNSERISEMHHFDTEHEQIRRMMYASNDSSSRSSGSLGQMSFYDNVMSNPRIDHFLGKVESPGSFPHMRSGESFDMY
Summary of the method: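 Binding signal here means per-feature fluorescence intensity in arbitrary units. The values were read on an Axon 4000B scanner after a custom Agilent array, double-stranded by primer extension with Cy5-dUTP, was incubated with 200 nM protein at 25 °C for 1 h in PBS with 2% BSA, salmon testes DNA and 50 µM zinc acetate, then washed. The proteins were transcription factors with an N-terminal polyhistidine tag and DsRed, expressed in E. coli BL21-CodonPlus and purified on Ni–NTA.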

Row | Sequence | binding signal
1 | TTGGACACTAATTATAAATATTAAATATAGACTATTAATACGGAGTCACCTAGTGCAG | 4640 fluorescence intensity (a.u.)
2 | AACAATTAACCAATGATGATGTTCATCTTTGTACTGAACTCGGAGTCACCTAGTGCAG | 8130 fluorescence intensity (a.u.)
3 | TTTGATGTTAATTGATGCTCTATGTTCTGTCAAGTCATTGCGGAGTCACCTAGTGCAG | 41300 fluorescence intensity (a.u.)
4 | GTTCAAATCTTGATTGGATTTAAAAGTAGTATCTTTTACTCGGAGTCACCTAGTGCAG | 17500 fluorescence intensity (a.u.)
5 | TTGTAATAATTAAAATAAAATTTATTTTACGCTAATGATCCGGAGTCACCTAGTGCAG | 13100 fluorescence intensity (a.u.)
6 | ATCTCAAAATTTGTAAAATTATAATGGCATGGTTCCAATTCGGAGTCACCTAGTGCAG | 4470 fluorescence intensity (a.u.)
7 | GTGGTAATGTCTCTGCAAATTAAATCGTGATTTTAGAGGACGGAGTCACCTAGTGCAG | 9210 fluorescence intensity (a.u.)
8 | CGTGGCTAATTTGACTCAGTCTTCAACTGACGTGGTAATTCGGAGTCACCTAGTGCAG | 15900 fluorescence intensity (a.u.)
9 | CATTCATTTAGATGTTAATGAATTTAGACATATATATGTGCGGAGTCACCTAGTGCAG | 7780 fluorescence intensity (a.u.)
10 | TCAAATAAATTAAGAAATCTCTTTTGTGAATTCTCTCTGACGGAGTCACCTAGTGCAG | 14000 fluorescence intensity (a.u.)
11 | ACACCTAATTAATGTCCCATGGAATCAGCAATCAGATGGCCGGAGTCACCTAGTGCAG | 21700 fluorescence intensity (a.u.)
12 | ACTGTGATTTAACAAGTAAAATATTGTTTGATAGTTCAAACGGAGTCACCTAGTGCAG | 9190 fluorescence intensity (a.u.)
13 | TCCTAAATTTGGTAGCAATCTAGAACTTTCTTCGCTATGGCGGAGTCACCTAGTGCAG | 10300 fluorescence intensity (a.u.)
14 | ATCTGTCTTAGTTAATTTAATTTAATTTATGTTGGGTGGACGGAGTCACCTAGTGCAG | 33900 fluorescence intensity (a.u.)
15 | CCACAACTTCAATAACAGGTGAATTTGACTTCTTCAGTGGCGGAGTCACCTAGTGCAG | 3990 fluorescence intensity (a.u.)
16 | TGTACATGATTAATTGCAATTAGCTAGTGCGTATATAGAACGGAGTCACCTAGTGCAG | 20500 fluorescence intensity (a.u.)
17 | CTAATATAATCAAAACCATCATGAAATTTGGTTTAGGGAACGGAGTCACCTAGTGCAG | 5520 fluorescence intensity (a.u.)
18 | ACATTAACATTACATTTATTCCCCTAAAACGAAAACTTCTCGGAGTCACCTAGTGCAG | 3320 fluorescence intensity (a.u.)
19 | CAGTAATTGATCCGACTGCTGATTCGATGGCAGTAATCTTCGGAGTCACCTAGTGCAG | 20100 fluorescence intensity (a.u.)
20 | TCTAGCATGATTGGGAGTTCGTTCGCCGCCGTCTCTGCCACGGAGTCACCTAGTGCAG | 38900 fluorescence intensity (a.u.)
21 | GGAATAAATTTACCTTAGACAAGACTACTCGCGCAAGTCACGGAGTCACCTAGTGCAG | 12300 fluorescence intensity (a.u.)

Row | Sequence | binding signal
22 | TTAATAATTAAAATAACAATTTACAAACGACCGGATTAACCGGAGTCACCTAGTGCAG | 6490 fluorescence intensity (a.u.)
23 | TAATACTTAATTAACTATAAGAAAATACGTTGCTCCGTTTCGGAGTCACCTAGTGCAG | 8340 fluorescence intensity (a.u.)
24 | TTTAATTTTGAATTTTAATTAATTGGAGTTTACACGGACTCGGAGTCACCTAGTGCAG | 39800 fluorescence intensity (a.u.)
25 | TCAAGAGACGCGATTAGCTAATTATCTCGATGAGTTTTATCGGAGTCACCTAGTGCAG | 4130 fluorescence intensity (a.u.)
26 | GTGTTGATTTAATCACAAAACTACAATGTTTATAACACCACGGAGTCACCTAGTGCAG | 30700 fluorescence intensity (a.u.)
27 | CTCAATCAGTCAATCTGTATACAGCAACTCAGCGATCTTACGGAGTCACCTAGTGCAG | 18500 fluorescence intensity (a.u.)
28 | AGCAAATTAAGAAGATTGCCATCTTTCGAAAGCGTCAGGACGGAGTCACCTAGTGCAG | 11900 fluorescence intensity (a.u.)
29 | CTGCACCAAACTAATTTATACATAATGCAAATTTCAGAGCCGGAGTCACCTAGTGCAG | 7690 fluorescence intensity (a.u.)
30 | CAGTAGATGATGAGTAATGTAGAAATCTGCAATGTGGGTTCGGAGTCACCTAGTGCAG | 7730 fluorescence intensity (a.u.)
31 | AGTAGATGATAGAACTATATCAAATTTGCACAGTGAAGTCCGGAGTCACCTAGTGCAG | 7140 fluorescence intensity (a.u.)
32 | GCCTTAAATTAGCCCTCAAGGATCCAAACAGGTGGGCTAACGGAGTCACCTAGTGCAG | 7150 fluorescence intensity (a.u.)
33 | CACCTAAACCAAATCAATTTATTTAAGCAAATTTTGAGGGCGGAGTCACCTAGTGCAG | 19200 fluorescence intensity (a.u.)
34 | CCTGCTATGATTAATACTAGTACTGTCACTTACCTCTCCGCGGAGTCACCTAGTGCAG | 3820 fluorescence intensity (a.u.)
35 | GCTAATTGTGAGTTTGTGACCTTCGTTTCGGTTGGGTTGACGGAGTCACCTAGTGCAG | 34600 fluorescence intensity (a.u.)
36 | GTTAAATTTAGGAGTTGGAGCTATACCAAACAGGCCCTAACGGAGTCACCTAGTGCAG | 3420 fluorescence intensity (a.u.)
37 | GGTTAATCAATCAATCAGTTAATTACACAATTACTCACATCGGAGTCACCTAGTGCAG | 57300 fluorescence intensity (a.u.)
38 | ATACATTGAATTTAAATTTGTATGTTTATGTACTGATGTACGGAGTCACCTAGTGCAG | 6870 fluorescence intensity (a.u.)
39 | GTCGATTACCAATTTTCACTGTTAACACACGGTCAACCCACGGAGTCACCTAGTGCAG | 20600 fluorescence intensity (a.u.)
40 | TGTTGATTTTACCTATCGGATTGGAAGAAGATAACTATTCCGGAGTCACCTAGTGCAG | 5230 fluorescence intensity (a.u.)
41 | GTATTTGATTTATTTAGTGTTCTTAACATGATGTAAACAACGGAGTCACCTAGTGCAG | 9930 fluorescence intensity (a.u.)
42 | TCACCCGACATGAATTGATTGATGAGCCCGCAGAGATAATCGGAGTCACCTAGTGCAG | 24400 fluorescence intensity (a.u.)
